Experimental data taken from paper PMC7409549, “A time-resolved interaction analysis of Bem1 reconstructs the flow of Cdc42 during polar growth” (Life Science Alliance, 2020).
No constants are given. Whether binding was seen depends on the method and setting. In cells and extracts the contact can be indirect. Some entries that bind do so weakly or less than the wild type. For some of these results: Tags and fused reporters may be left off the sequences shown.

Amino acid sequences for entries named in this document (tags omitted).
UniProt P38631: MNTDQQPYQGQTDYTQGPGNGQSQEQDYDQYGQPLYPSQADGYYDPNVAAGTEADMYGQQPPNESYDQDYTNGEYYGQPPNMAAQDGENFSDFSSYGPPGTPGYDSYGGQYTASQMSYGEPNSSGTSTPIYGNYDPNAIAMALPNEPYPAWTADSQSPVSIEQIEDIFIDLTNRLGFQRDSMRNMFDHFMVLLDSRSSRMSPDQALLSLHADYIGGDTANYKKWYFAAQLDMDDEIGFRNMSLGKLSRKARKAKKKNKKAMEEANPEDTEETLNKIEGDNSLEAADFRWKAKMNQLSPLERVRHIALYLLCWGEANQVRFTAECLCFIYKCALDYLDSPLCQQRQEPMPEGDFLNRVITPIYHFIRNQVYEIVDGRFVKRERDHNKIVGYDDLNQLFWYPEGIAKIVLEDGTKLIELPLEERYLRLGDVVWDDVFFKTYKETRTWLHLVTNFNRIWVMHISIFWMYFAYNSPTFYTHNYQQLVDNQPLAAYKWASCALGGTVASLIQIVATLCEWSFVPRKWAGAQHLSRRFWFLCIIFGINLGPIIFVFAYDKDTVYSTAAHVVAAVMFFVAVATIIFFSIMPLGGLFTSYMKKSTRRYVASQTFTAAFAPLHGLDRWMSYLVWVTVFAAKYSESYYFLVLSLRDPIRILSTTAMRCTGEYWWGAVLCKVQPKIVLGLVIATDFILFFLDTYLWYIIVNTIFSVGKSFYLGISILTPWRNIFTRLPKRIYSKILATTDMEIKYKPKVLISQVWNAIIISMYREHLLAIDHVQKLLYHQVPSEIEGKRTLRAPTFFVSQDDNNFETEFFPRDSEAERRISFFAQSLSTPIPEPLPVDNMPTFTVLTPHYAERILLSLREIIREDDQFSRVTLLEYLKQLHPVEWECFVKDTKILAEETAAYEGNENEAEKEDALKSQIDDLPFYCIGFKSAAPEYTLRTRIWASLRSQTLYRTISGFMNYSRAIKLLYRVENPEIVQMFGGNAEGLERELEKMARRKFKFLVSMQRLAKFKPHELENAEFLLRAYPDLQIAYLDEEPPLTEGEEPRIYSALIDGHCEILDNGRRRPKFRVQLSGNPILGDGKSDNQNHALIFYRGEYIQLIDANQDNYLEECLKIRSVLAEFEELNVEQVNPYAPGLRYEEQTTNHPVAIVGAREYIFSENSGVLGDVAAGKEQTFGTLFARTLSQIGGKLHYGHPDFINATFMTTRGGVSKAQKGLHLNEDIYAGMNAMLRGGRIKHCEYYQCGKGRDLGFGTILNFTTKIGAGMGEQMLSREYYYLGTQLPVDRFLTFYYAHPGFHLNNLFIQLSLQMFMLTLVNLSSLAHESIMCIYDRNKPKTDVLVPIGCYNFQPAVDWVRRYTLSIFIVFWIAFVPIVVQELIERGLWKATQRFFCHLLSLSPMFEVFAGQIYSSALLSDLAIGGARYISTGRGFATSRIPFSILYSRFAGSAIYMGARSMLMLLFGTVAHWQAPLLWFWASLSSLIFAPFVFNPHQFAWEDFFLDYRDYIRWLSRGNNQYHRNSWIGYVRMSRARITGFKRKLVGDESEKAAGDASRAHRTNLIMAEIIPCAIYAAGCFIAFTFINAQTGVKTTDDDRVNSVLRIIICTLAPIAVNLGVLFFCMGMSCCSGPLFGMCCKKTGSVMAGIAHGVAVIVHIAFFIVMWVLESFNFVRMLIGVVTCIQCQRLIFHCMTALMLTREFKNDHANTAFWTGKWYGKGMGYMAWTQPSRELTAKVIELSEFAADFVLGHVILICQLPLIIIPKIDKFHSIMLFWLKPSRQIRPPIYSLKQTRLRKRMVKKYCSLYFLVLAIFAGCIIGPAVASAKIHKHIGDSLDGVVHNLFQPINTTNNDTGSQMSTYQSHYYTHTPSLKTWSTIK
UniProt P23201: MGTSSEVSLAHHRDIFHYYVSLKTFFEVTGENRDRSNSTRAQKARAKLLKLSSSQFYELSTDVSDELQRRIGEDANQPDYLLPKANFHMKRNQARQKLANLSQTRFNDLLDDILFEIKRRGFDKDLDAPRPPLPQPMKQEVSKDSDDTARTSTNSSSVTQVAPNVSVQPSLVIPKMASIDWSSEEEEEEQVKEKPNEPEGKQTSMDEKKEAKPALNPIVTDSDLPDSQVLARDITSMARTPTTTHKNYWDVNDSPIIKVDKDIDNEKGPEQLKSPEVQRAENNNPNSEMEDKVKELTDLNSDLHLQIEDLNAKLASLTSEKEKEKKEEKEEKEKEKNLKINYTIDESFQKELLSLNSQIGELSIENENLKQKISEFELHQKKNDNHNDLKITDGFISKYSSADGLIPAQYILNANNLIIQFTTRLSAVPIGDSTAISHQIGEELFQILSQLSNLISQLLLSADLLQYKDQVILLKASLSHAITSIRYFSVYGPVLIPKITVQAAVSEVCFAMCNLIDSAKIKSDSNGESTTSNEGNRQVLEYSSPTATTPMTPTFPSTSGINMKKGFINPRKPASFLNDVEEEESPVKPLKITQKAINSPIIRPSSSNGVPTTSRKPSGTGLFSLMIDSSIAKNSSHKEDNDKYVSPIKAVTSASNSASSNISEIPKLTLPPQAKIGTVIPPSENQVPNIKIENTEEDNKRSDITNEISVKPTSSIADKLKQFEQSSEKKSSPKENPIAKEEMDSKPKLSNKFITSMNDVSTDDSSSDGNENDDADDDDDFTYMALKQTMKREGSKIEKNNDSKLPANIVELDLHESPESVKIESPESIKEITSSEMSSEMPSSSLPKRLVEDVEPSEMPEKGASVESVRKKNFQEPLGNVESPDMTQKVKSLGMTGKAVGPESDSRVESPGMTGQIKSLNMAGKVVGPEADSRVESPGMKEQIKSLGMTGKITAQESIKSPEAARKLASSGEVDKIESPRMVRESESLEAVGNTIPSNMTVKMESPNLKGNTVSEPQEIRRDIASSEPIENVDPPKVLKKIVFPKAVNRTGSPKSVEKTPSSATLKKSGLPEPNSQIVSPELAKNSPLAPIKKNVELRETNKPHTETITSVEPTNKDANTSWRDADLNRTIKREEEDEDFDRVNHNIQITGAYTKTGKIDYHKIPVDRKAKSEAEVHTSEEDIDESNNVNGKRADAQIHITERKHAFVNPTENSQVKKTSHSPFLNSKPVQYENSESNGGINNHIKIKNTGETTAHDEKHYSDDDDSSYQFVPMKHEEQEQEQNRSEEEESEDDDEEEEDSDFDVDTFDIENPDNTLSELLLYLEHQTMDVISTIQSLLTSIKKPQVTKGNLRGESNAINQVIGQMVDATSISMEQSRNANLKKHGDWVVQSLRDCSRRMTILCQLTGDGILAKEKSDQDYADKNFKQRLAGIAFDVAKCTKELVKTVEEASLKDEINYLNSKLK

T1: Bem1WK-Cub-RUra3 (S. cerevisiae) (UniProt P29366)
T1 sequence: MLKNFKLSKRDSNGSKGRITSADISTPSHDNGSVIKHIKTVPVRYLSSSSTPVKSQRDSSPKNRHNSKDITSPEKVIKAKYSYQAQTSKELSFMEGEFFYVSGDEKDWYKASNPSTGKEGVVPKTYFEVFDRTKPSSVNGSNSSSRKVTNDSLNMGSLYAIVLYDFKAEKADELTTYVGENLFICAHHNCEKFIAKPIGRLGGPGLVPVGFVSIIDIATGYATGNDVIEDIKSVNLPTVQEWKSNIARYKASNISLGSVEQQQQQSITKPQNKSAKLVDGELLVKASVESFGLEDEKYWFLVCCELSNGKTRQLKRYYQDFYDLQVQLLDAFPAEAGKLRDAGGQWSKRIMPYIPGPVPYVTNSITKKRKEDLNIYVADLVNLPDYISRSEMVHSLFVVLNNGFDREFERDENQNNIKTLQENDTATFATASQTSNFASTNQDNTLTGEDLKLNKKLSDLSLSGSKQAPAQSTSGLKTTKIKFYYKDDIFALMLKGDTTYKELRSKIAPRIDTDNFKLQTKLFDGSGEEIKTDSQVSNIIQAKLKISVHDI

T2: Bem1-Cub-RUra3 (S. cerevisiae) (UniProt P29366)
T2 sequence: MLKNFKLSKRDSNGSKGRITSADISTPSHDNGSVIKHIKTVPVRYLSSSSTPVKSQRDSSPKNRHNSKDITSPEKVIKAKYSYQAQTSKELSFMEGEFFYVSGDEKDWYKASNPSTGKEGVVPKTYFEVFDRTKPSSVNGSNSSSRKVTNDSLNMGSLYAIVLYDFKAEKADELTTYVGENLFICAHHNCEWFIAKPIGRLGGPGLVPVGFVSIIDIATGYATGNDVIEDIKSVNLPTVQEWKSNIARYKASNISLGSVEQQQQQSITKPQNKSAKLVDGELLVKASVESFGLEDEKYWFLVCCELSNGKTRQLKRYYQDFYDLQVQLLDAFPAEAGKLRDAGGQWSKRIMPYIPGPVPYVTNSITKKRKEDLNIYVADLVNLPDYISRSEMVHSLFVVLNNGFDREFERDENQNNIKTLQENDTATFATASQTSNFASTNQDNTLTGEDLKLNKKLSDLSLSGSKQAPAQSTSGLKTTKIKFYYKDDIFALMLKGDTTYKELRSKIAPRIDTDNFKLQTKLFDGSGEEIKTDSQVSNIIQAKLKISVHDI

T3: Bem1-mCherry-Cub-RGFP (S. cerevisiae) (UniProt P29366)
T3 sequence: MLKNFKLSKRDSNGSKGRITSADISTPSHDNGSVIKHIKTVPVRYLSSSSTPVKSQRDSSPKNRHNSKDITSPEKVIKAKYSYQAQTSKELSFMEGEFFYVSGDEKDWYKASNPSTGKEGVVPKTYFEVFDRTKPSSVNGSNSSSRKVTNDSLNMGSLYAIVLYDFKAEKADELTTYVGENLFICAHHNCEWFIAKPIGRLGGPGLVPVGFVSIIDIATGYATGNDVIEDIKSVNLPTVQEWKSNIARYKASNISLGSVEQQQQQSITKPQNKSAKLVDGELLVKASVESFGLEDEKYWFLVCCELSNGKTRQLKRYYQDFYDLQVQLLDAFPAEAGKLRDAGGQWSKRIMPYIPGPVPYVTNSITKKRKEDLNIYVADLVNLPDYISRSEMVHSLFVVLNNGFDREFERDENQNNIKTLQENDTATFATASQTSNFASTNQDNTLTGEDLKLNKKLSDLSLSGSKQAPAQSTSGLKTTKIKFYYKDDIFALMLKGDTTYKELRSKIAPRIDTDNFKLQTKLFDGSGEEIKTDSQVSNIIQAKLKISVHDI


How the values were obtained:
[1] = molecular target: T1, Bem1WK-Cub-RUra3 (S. cerevisiae); assay: split reporter; split-ubiquitin (Split-Ub): a-cells with a Cub-RUra3 (CRU) fusion mated with α-cells with Nub fusions (P_CUP1), diploids as quadruplets on SD medium with 1 mg/ml 5-FOA and copper; growth = interaction; detects direct and indirect interactions
[2] = molecular target: T2, Bem1-Cub-RUra3 (S. cerevisiae); assay: as above
[3] = molecular target: T3, Bem1-mCherry-Cub-RGFP (S. cerevisiae); assay: split reporter; SPLIFF as a9, measured at the cell front during bud site assembly and bud growth (PCDII)
[4] = molecular target: T3, Bem1-mCherry-Cub-RGFP (S. cerevisiae); assay: split reporter; SPLIFF as a9, measured at the bud neck from completion of acto-myosin ring contraction until abscission (PCDIII)

Row | Molecule | binding [1] | binding [2] | binding [3] | binding [4]
1 | Nub-Rga2 (protein, UniProt Q06407 1-1009) MSADPINDQSSLCVRCNKSIASSQVYELESKKWHDQCFTCYKCDKKLNADSDFLVLDIGTLICYDCSDKCTNCGDKIDDTAIILPSSNEAYCSNCFRCCRCSNRIKNLKYAKTKRGLCCMDCHEKLLRKKQLLLENQTKNSSKEDFPIKLPERSVKRPLSPTRINGKSDVSTNNTAISKNLVSSNEDQQLTPQVLVSQERDESSLNDNNDNDNSKDREETSSHARTVSIDDILNSTLEHDSNSIEEQSLVDNEDYINKMGEDVTYRLLKPQRANRDSIVVKDPRIPNSNSNANRFFSIYDKEETDKDDTDNKENEIIVNTPRNSTDKITSPLNSPMAVQMNEEVEPPHGLALTLSEATKENNKSSQGIQTSTSKSMNHVSPITRTDTVEMKTSTSSSTLRLSDNGSFSRPQTADNLLPHKKVAPSPNKKLSRSFSLKSKNFVHNLKSKTSEMLDPKHPHHSTSIQESDTHSGWGVSSTHTNIRKSKAKKNPVSRGQSDSTIYNTLPQHGNFTVPEFNHKKAQSSLGSISKKQNSNDTATNRRINGSFTSSSSGHHIAMFRTPPLESGPLFKRPSLSSESAHHRSSSLQTSRSTNALLEDDSTKVDATDESATSLEKDFYFTELTLRKLKLDVRELEGTKKKLLQDVENLRLAKERLLNDVDNLTREKDKQSASSRESLEQKENIATSITVKSPSSNSDRKGSISNASPKPRFWKIFSSAKDHQVGDLESQQRSPNSSSGGTTNIAQKEISSPKLIRVHDELPSPGKVPLSPSPKRLDYTPDGSHLYGSSLQARCAYEKSTVPIIIRCCIDRIEKDDIGLNMEGLYRKSGSQTLVEEIENEFAQNNSLHSDTLSPKLNALLNQDIHAVASVLKRYLRKLPDPVLSFSIYDALIDLVRNNQLIERLPLNNDKFLDSPQKVTIYEMVLKSLLEIFKILPVEHQEVLKVLAAHIGKVRRCSERNLMNLHNLSLVFAPSLIHDFDGEKDIVDMKERNYIVEFILGNYRDIFKQA | binds | binds | binds | no binding (condition: during PCDIII (abscission))
2 | Nub-Msb1 (protein, UniProt P21339 1-1137) MNDMAKPLPTPPTAEIRKSRSNSPKKAQKTNLSPNKNQNNEKNVPRSNGRTKNEHNSMDDEEFEFFHQFSREKVKGVIHVITAELKEKGPDVEFLMIPFRPEQTNDKLLTLLNQLFPLGNGQPVNEKKQLRIVSKADVWTLFQCLKYIWCRLPNSEIIGWKSYLEFKFREEDKKFPRKSFLEIMPQCLASPNHASIVYDFFDLIISISSNSRVNKMSARKISKMCAIWAFSKQIPNSDIQDYDFESAAMKSFAPNNSIQDGLDQWIPASDAMFHLLLAFLRSFVPQDLESAKLPRTLKSLLFNNQYPPRKSTAYTSETILTIPLVTLKTDVFSRKPWQLLERCNDLLDFSDHDAFEAREDYALLKSLFRKKNTVEGISRKMSQESRRLMKAMSTKHSTFQPGWAPRECIENISHLKECIEVKRLDIDDYFIWTWLSSLSFEQTSEKKKIFGRSIILEFEFDGFKKWVVFQECDITLDYNKKGQLKKKTSAQSPTTEKELPPDDFELEDPPLSKSPTLSQTYKKFQAEVPQQSTVRRDSAPDNQGIYHTVISKNALTKNKHNVNLHSFEHKISKWNPLNNLRKKSGSNSSSSSFEEKSKDAPIREEYHTNKNHKSKKEERVLSQFSTLNPDEYQLPVIETGSSNFKIEIPELMYEHDDDDSDKLKNSQKRATDSAIEELNGMVEEMMINEPDDVKISITEAETFESLTKFDQYKPSNITDDDLQSSHSSAVHSLKLSTNTNDSCADSSKYTADRKLAEPRKISEESKVNDDSSSYYSPNINNLPASRMPSQPTYSNSDSKKAFTNESRLNVLQGAVSPSQQVTPKPYKNAPGDCVSPVQQKYYQNDRRNEMSPASAPVPPSAYSPARSPQFSTNSAGFKQNTINVPVGYNDPAHVLANQPHMTYRDQHNYPSHQQKQRPFQNNIVPPELKSRNQRADASPIPQHMVPVKQGVPNLPSNVPLYQQMERMNPNHQHPVNTYKVTQPPYHNNTTNAYGNSRAGNAHMLDGKWSNNPPQMVPKGVRPNQYPQQHVNRYSPQAQPVVPAEYYNGPPPMRAPPMMSHMVPAQEPIRYTAGANRRSFPQGMQQNAYSVPAQPMGAVNSEFYLPEAPQGNKLHGNINKRQERKKLYDNIRSGNFGI | binds |  |  | 
3 | Nub-Ras2 (protein, UniProt P01120 1-322) MPLNKSNIREYKLVVVGGGGVGKSALTIQLTQSHFVDEYDPTIEDSYRKQVVIDDEVSILDILDTAGQEEYSAMREQYMRNGEGFLLVYSITSKSSLDELMTYYQQILRVKDTDYVPIVVVGNKSDLENEKQVSYQDGLNMAKQMNAPFLETSAKQAINVEEAFYTLARLVRDEGGKYNKTLTENDNSKQTSQDTKGSGANSVPRNSGGHRKMSNAANGKNVNSSTTVVNARNASIESKTGLAGNQATNGKTQTDRTNIDNSTGQAGQANAQSANTVNNRVNNNSKAGQVSNAKQARKQQAAPGGNTSEASKSGSGGCCIIS | binds | binds |  | 

Continued, in another order:

Row | binding [1] | binding [2] | binding [3] | Molecule | binding [4]
4 | binds | binds |  | Nub-Fks1 (from UniProt P38631 1-1876) | 
5 | binds | binds |  | Nub-Spa2 (from UniProt P23201 1-1466) | 
6 | no binding |  |  | Nub-Bem1 (protein, UniProt P29366 1-551) MLKNFKLSKRDSNGSKGRITSADISTPSHDNGSVIKHIKTVPVRYLSSSSTPVKSQRDSSPKNRHNSKDITSPEKVIKAKYSYQAQTSKELSFMEGEFFYVSGDEKDWYKASNPSTGKEGVVPKTYFEVFDRTKPSSVNGSNSSSRKVTNDSLNMGSLYAIVLYDFKAEKADELTTYVGENLFICAHHNCEWFIAKPIGRLGGPGLVPVGFVSIIDIATGYATGNDVIEDIKSVNLPTVQEWKSNIARYKASNISLGSVEQQQQQSITKPQNKSAKLVDGELLVKASVESFGLEDEKYWFLVCCELSNGKTRQLKRYYQDFYDLQVQLLDAFPAEAGKLRDAGGQWSKRIMPYIPGPVPYVTNSITKKRKEDLNIYVADLVNLPDYISRSEMVHSLFVVLNNGFDREFERDENQNNIKTLQENDTATFATASQTSNFASTNQDNTLTGEDLKLNKKLSDLSLSGSKQAPAQSTSGLKTTKIKFYYKDDIFALMLKGDTTYKELRSKIAPRIDTDNFKLQTKLFDGSGEEIKTDSQVSNIIQAKLKISVHDI | 
7 | no binding |  |  | Nub-Bud6 (protein, UniProt P41697 1-788) MKMAVDDPTYGTPKIKRTASSSSSIETTVTKLLMSTKHLLQVLTQWSKGTTSGRLVSDAYVQLGNDFKVVSKFFMHAKVDMSDVGDVPMALRRVLEVTLREPPSDETLNKHLPKIREIIVTLLDKLKVKQAILKNMQQEHRISVKSHHQQNPSFTSNLSLGSEGTREGTPLSSRKSSIVRDQRQSDSVENSYGEKVNSTSTGTPSAQSAEATLTKPRTNIKQNLKSNNAPNASDDDDALSQLKKGTNLQRRASKRYSAYHMAKLTNQSTTEAAAAAGLMTTPSPSMLHLEETVRKSKLYGNNNNDDDRNINSAENKGKSIDDVSKASPLAKTPLPIENVRASPRRLSSVVTTSPDKAMNGTCPVFLRIGDKTKKCHVQLPTTKNALRLLFIERFAYSPGANSFPDIYIMDPQYGVFYELEELNLLDIKEGFVIELKLEENPNNTIKEFIDTVKMEISNSQNDIIRHLKEMSFGSAISGKQTEVLPQPGLEANKHDLVGQNKKDDDKTIKDIQYELGKIKQVHNINRSNINETIFNILRKVDNFKSLSFSAKNSSNRMYMEKSQTELGDLSDTLLSKVDDLQDVIEIMRKDVAERRSQPAKKKLETVSKDLENAQADVLKLQEFIDTEKPHWKKTWEAELDKVCEEQQFLTLQEELILDLKEDLGKALETFDLIKLCCEEQEKNPSRSKSNPILPIMRPGTFNQVREQVMVAVQSLNPDHDSRVEAIDKAEKMWEMERKLKASNEFDDELENFVGNSNLKKSGGFEEVERIRKQKDEANLRAYFGPGFT | 
